According to PubChem BioAssay AID1508624 (National Center for Advancing Translational Sciences (NCATS), 2021):
Among all 48,000 compounds or so, about 120 (0.25%) were called active. Roughly 4% stayed inconclusive and do not appear here. Calls come from the whole dose curve; as a rule, active = well fitted activation curve with a large enough effect; inconclusive = small, poorly fitted or top-dose-only effect, or another doubt; inactive = no such curve, though single readings can be large or run the other way. This is a selection; strong and weak results do not stand in their true shares. Where no call is shown, the source filed none.

test: Primary qHTS for Identification of Small Molecule Activators of Huntingtin-Antisense Promoter Activity; details: HEK293 HTT-AS promoter firefly luciferase reporter, 24 h; activity change, positive = activation: at 57.5 µM (top of the series), percent change from vehicle, -100% = no light; note: nearly all actives have a fitted effect of over 55% in size
Procedure, shortened: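 HEK293 cells carrying firefly luciferase reporters were seeded at 2,500 per well in Opti-MEM and cultured for 24 h. They were then treated with compounds at up to 57.5 uM final for 24 h at 37 degrees C before Dual-Glo luminescence readout.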
Potency is the fitted concentration of half-maximal effect.

| SMILES | activity change, positive = activation | Potency |
| --- | --- | --- |
| CNC(=O)c1cnc2sc(N3CCC(C)CC3)nn2c1=O | 52.6% | – |
| COc1ccc(OC)c(-c2cc(C(=O)Nc3c(C)nn(Cc4ccc(C)cc4)c3C)no2)c1 | -9.75% | – |
| Cc1ccccc1CNC(=O)C1CCCCN1S(=O)(=O)c1ccc(F)cc1 (stereo unspecified) | -6.37% | – |
| Cc1ccc(NC(=O)c2c(C)oc3ccc(O)c(CN4CCN(Cc5ccccc5)CC4)c23)cc1 | -23.9% | – |
| CCOC(=O)c1cccc(NC(=O)CCc2c(C)nn(-c3ccc(N4CCCCC4)nn3)c2C)c1 | 3.77% | – |
| COc1ccc(S(=O)(=O)Nc2cccc(-c3ccc(N4CCCCCC4)nn3)c2)cc1OC | 16% | – |
| CCOc1ccc(CNC(=O)c2ccc(NC(=O)N3CCCCc4ccccc43)cc2)cc1 | inactive: -5.94% | – |
| Cc1ccc(OCCCCn2c(-c3ccc(Cl)cc3)nc3ccccc3c2=O)cc1 | -0.97% | – |
| CCC(C)NC(=O)c1cc(-c2cccc(OC)c2)on1 (stereo unspecified) | 88% | – |
| Cc1ccc(S(=O)(=O)Nc2cc3c(cc2NCc2ccccc2)n(C)c(=O)n3C)c(C)c1 | 39.7% | – |
| CCc1ccc(CNC(=O)c2ccc(-c3nc(CS(=O)(=O)c4ccccc4)c(C)o3)cc2)cc1 | -14.6% | – |
| Cc1ccc(C(=O)NCC(c2cccs2)S(=O)(=O)c2cccs2)cc1 (stereo unspecified) | inactive: -35.8% | – |
| COC(=O)CN1C(=O)CSc2ccc(S(=O)(=O)N3CCOCC3)cc21 | 7.61% | – |
| O=C1C(=O)N(C2CCN(S(=O)(=O)c3ccc(F)cc3)CC2)CCN1Cc1ccccc1 | 7.07% | – |
| CCc1ccccc1NC(=O)CSc1nnc(-c2cc(OC)c(OC)c(OC)c2)o1 | 2.34% | – |
| COc1ccc(CNC(=O)c2cc3ccccn3n2)c(OC)c1 | 2.81% | – |
| CCCCOc1ccc(CNC(=O)Cn2ncn3c(cc4cc(F)ccc43)c2=O)cc1 | -4.72% | – |
| COc1ccc(N2CCN(S(=O)(=O)c3c(C)nc4scc(C)n4c3=O)CC2)cc1 | -27.4% | – |
| CCOC(=O)c1cccc(NC(=O)CC2C(=O)N(c3ccc(F)cc3)C(=O)N2C(C)C)c1 (stereo unspecified) | -7.29% | – |
| Cc1ccc(-c2nc3ncccc3o2)cc1NC(=O)COc1ccc(C(C)C)cc1 | -27.6% | – |
| COc1ccc(C)cc1NS(=O)(=O)c1ccc2c(c1)[C@H]1C=CC[C@H]1[C@@H](c1cccc(Cl)c1)N2 | -17.2% | – |

| SMILES | activity change, positive = activation | Potency |
| --- | --- | --- |
| CCCS(=O)(=O)N1CCC(N2CCN(Cc3ccc(C)cc3)C(=O)C2=O)CC1 | 3.89% | – |
| Cc1cc(=O)[nH]c2nnc(SCC(=O)Nc3cc(C(F)(F)F)ccc3Cl)n12 | inactive: -19.5% | – |
| Cc1cccc(NC(=O)CSc2nnc(-c3cccs3)o2)c1 | – | active: 25.1 µM |
| COc1ccc(C(=O)NCC(c2ccco2)S(=O)(=O)c2ccccc2)cc1 (stereo unspecified) | inactive: -0.317% | – |
| CCOC(=O)c1cccc(NC(=O)CC2C(=O)N(c3ccc(Cl)cc3)C(=O)N2C2CCCC2)c1 (stereo unspecified) | -46.6% | – |
| Cc1ccc(C(=O)Nc2ccccc2)cc1S(=O)(=O)Nc1ccc(Br)cc1 | inactive: -36.5% | – |
| COc1ccc2c(c1)cc1c(=O)n(CC(=O)NC(C)C)nc(C)n12 | -3.18% | – |
| COc1ccc(S(=O)(=O)Nc2ccc(-c3ccc(N4CCCC4)nn3)cc2)cc1F | 2.61% | – |
| COc1ccc(NC(=O)CC2C(=O)N(c3cccc(OC)c3)C(=O)N2Cc2cccnc2)cc1 (stereo unspecified) | -1.9% | – |
| Cn1c(=O)c2c(nc(SCC(=O)Nc3ccc(F)cc3)n2Cc2ccc(Cl)cc2)n(C)c1=O | -15.2% | – |
| O=C1c2ccccc2C(=O)C1(c1ccccc1)N1CCN(c2cccc(C(F)(F)F)c2)CC1 | inactive: -21.8% | – |
| COc1ccc(Cl)cc1NC(=O)c1cc2ccccn2n1 | 44.1% | – |
| CCCC(=O)Nc1cccc(-c2nc3ncccc3o2)c1 | 26.9% | – |
| O=C(CCCCn1c(=O)c2ccccc2n(CC(=O)Nc2ccc(F)cc2F)c1=O)NCc1ccccc1Cl | inactive: -5.2% | – |
| Clc1ccc(CCNC(c2cccc(Cl)c2)c2nnc(-c3ccccc3)o2)cc1 (stereo unspecified) | -9.79% | – |
| Cc1cc2c(cc1C)-n1c(-c3ccccc3)c3c(=O)n(C)c(=O)n(C)c3c1C(c1ccco1)N2 (stereo unspecified) | -7.2% | – |
| O=C(O)CCc1ccc(-c2ccccc2)n1-c1cccc(Br)c1 | -17.4% | – |
| CN(Cc1ccccc1)C(=O)c1cc2c(s1)-c1ccc(Cl)cc1SC2 | inactive: 11.4% | – |
| Cc1ccc(N(C(=O)c2cccc(C)c2)S(=O)(=O)c2ccc(Cl)cc2)cc1 | -37.5% | – |
| CCOC(=O)C1CCN(C(=O)c2ccc3c(=O)n4nc(Nc5ccccc5)sc4nc3c2)CC1 | inactive: -25.6% | – |
| CCOC(=O)c1ccc(NC(=O)C2CCN(S(=O)(=O)Cc3ccccc3)CC2)cc1 | 7.91% | – |

| SMILES | activity change, positive = activation | Potency |
| --- | --- | --- |
| Cc1ccccc1NC(=O)c1c(C)oc2ccc(O)c(CN3CCCC(C)C3)c12 (stereo unspecified) | -28.3% | – |
| COc1cc2c(cc1OC)C(c1ccc(F)cc1)N(c1ccccc1)C(=O)C2 (stereo unspecified) | -22.9% | – |
| Cc1ccc2oc(-c3cc(NC(=O)Cc4ccccc4)ccc3Cl)nc2c1 | -21.3% | – |
| Cc1ccc(NC(=O)CCn2nc(-c3ccccc3)c3ccccc3c2=O)c(C)c1 | -16.8% | – |
| CCc1ccc(C2=C(C)C(N3CCC(C(=O)Nc4ccc(F)cc4)CC3)=NS2(=O)=O)cc1 | inactive: -26.9% | – |
| CCOc1ccc(S(=O)(=O)N2CCC(N3CCN(Cc4ccc(C)cc4)C(=O)C3=O)CC2)cc1 | 2.76% | – |
| Cc1oc2ccc(O)c(CN3CCCC3)c2c1C(=O)Nc1cccc(Cl)c1C | -0.713% | – |
| CCc1ccc(S(=O)(=O)Nc2ccc(-c3ccc(N4CCCCCC4)nn3)cc2)cc1 | 11.7% | – |
| CCOC(=O)Cn1cccc1-c1nc(-c2ccc(OC)cc2)c(-c2ccc(OC)cc2)s1 | inactive: -5.68% | – |
| Cc1nc2ccn(Cc3cccs3)c(=O)c2cc1C(=O)NCc1ccccc1 | -21.9% | – |
| CN(C)c1ccc(CNC(=O)c2cc3ccccn3n2)cc1 | 44.8% | – |
| Cc1ccc(C(CC(=O)NCC2(c3ccccc3)CCCC2)c2ccccc2)c(O)c1 (stereo unspecified) | -68.9% | – |
| COc1ccc(C2C(=O)N(C3CCCCCC3)CC(=O)N2CCc2ccccc2)cc1 (stereo unspecified) | -10.1% | – |
| COc1ccc(NC(=O)c2cc(-c3ccc4c(c3)OCO4)on2)c(OC)c1 | 7.07% | – |
| COc1ccc(CNC(=O)CCc2c(C)nn(-c3ccc(N4CCCC4)nn3)c2C)c(OC)c1 | -0.998% | – |
| Cc1ccc(NC(=O)c2c(C)oc3ccc(O)c(CN4CCCCC4)c23)cc1 | -16.8% | – |
| CCc1cccc(C)c1NC(=O)C1CCN(S(=O)(=O)Cc2ccccc2)CC1 | -11% | – |
| CCCOc1ccc(NC(=O)CC2C(=O)N(c3ccc(C)cc3)C(=O)N2Cc2cccc(OC)c2)cc1 (stereo unspecified) | 1.64% | – |
| CC(C)Oc1ccc(CNC(=O)c2cnc3sc(N4CCCCC4)nn3c2=O)cc1 | 1.05% | – |
